Experimental data taken from the supplement of paper PMC11417369.
The list shows a part of the results.

Test system: PF3D7_0420300 AP2 domain 1 (GST-tagged)
Assay: gcPBM binding intensity (ln(normalized median fluorescence intensity)); higher = stronger DNA binding
Outline: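 Binding of GST-tagged P. falciparum DNA-binding domains, expressed in E. coli and used at about 25 μg on average, was carried out for 1 h in 1× PBS containing 1% milk, 0.2 mg/ml BSA, 0.5% salmon testes DNA and 0.03% Triton X-100. The target was an Agilent 4 × 180k array of primer-extended double-stranded 36-bp intergenic genomic probes plus negative controls, read with Alexa488 anti-GST antibody at 488 nm. Binding intensity is the highest Masliner-normalised natural-log median intensity across replicate spots of either probe orientation.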

| Sequence | gcPBM binding intensity (ln) |
| --- | --- |
| TATATATTATATATATGTACATATTGTTGTGTATAT [XGTACX_site767] | 9.41 |
| TTTATAATTTATATCACACATATATCTGTAATAAAT [CACACA_site5048] | 9.13 |
| ATCTCTGTAAAGATCACACATATATTTTTGTTATAT [CACACA_site5094] | 9.36 |
| CATATATGTTATATTTAACACACATATAAGGTACAT [CACACA_site8105] | 9.39 |
| CAGCTCTTAAAAATTACACACATATACACATATATA [CACACA_site9073] | 9.55 |
| TTATTACACACATATGTGCACATATAAAAGTACACG [GTGCAC_site9581] | 9.42 |
| TTTCTAGTTACAAGAGTGCATAATATATAAAAATAA [GTGCAC_site9874] | 9.03 |
| TATATATATATATATACACACATTTTTAATGATAAA [CACACA_site2695] | 9.29 |
| TATAAATACAATTCACAAGAGATCATGTATCAAACC [CACACA_negctrl_site1219] | 9.4 |
| ATATAATAAATATGTTGTACTATAAAAAATAGCCAT [XGTACX_site4710] | 9.37 |
| TTCCAAAATTGCATTTGTACCCAAAAAATGTATACG [XGTACX_site7680] | 9.07 |
| GTAAGTTTGAATACACGTACAAATTTATTAAAGTCC [XGTACX_site6722] | 9.28 |
| AGATATTAAAACGTTACACACATTTATATATCTTCT [CACACA_site908] | 9.69 |
| ATCAGTCGGCAGGACAGTACACAGTAGCCAGGAAAT [XGTACX_site2003] | 9.32 |
| GCTTTTTATTTTTACCGTACATTATATATGTATATA [XGTACX_site808] | 9.69 |
| ATATTATTAATTTATAGTACTCATTTTTTTTTTTTT [XGTACX_site3536] | 9.22 |
| ATATATATATTTGTGTGTACATATTAATTTGTATGA [XGTACX_site4047] | 9.64 |
| AACGCGAACAATTTATAGATAACTTTTAATTATTAT [GTGCAC_negctrl_site179] | 9.2 |
| TATATATATATAAACTGTACTATTTTATGTTAAAAG [XGTACX_site3630] | 9.14 |
| ATTTAATACAAATACACACACAAATATATACATATA [CACACA_site3747] | 9.95 |
| AATATATATATAGGATGTACACATAATTCAAATACA [XGTACX_site6368] | 9.52 |
| ATACATTTTTGTAAAAGTACATATACATGCCCCCTT [XGTACX_site1367] | 9.53 |
| ATGGTATATCCAAATAAACACACGTAAATACATAAA [CACACA_site1682] | 9.45 |

| Sequence | gcPBM binding intensity (ln) |
| --- | --- |
| TTTAGCCAATTTTTAAAGTTTAAAAAAGAAAAAAGA [CACACA_negctrl_site118] | 8.72 |
| TATTAAAAATACATATGTACTCATAGCATAAAACAT [XGTACX_site8686] | 9.35 |
| CAAATGTAGAAAATGTGTACATAAAAAAAAAAAAAA [XGTACX_site8276] | 9.19 |
| AGTCAATTTTGTGTGTCAACATTTATATAAAGAATG [TGCATGCA_negctrl_site400] | 9.39 |
| TGTGAAAATTATGGGGCATGCAATACTTTAAAAATA [TGCATGCA_site653] | 9.3 |
| TTTTGGCTGATCAGATTTAACAAAAAAAAAAAAAAA [CACACA_negctrl_site671] | 8.58 |
| CAAATATATATTTTCTGTACAAATACAATTAATACT [XGTACX_site2694] | 9.13 |
| CCTTCAATTTACATAACACACATTTAACCATAATAA [CACACA_site2394] | 9.37 |
| GACACCTGCATGAAAGTGCAAAATAGAAAAGGAACA [GTGCAC_site9593] | 9.31 |
| TTACCTCTTTGAAATATACACACTAAACATATCAAC [CACACA_site2455] | 9.4 |
| AAGGAATAATAATAAATGTAAAGAAAAGCATACTGA [CACACA_negctrl_site36] | 9.5 |
| AAATACCTTATATATACACACTATGTTTTTCTTTTT [CACACA_site4792] | 9.63 |
| AACACGCACAGACACACACACAAAAATGATTAAAAA [CACACA_site7195] | 9.67 |
| AAAAGAAGAAACAAAACACACACAGTCTTCTTTTCT [CACACA_site9015] | 9.81 |
| TTTATGAGGTTACTATGTACGCAAATTATGTAATAA [XGTACX_site325] | 9.09 |
| ATTTGTGTTATTCGAAGTACGGATCATTTGAAATAA [XGTACX_site2510] | 9.1 |
| TCAAATTATTAAAATACACACATATTATATATATAT [CACACA_site2530] | 9.25 |
| AGCAATTTGGGGTGTACACACACCTTATTTAAATTA [CACACA_site1157] | 9.35 |
| TCGAACGTATCATGTGTACACACAAATTGTTTTTTT [CACACA_site8623] | 9.69 |
| GTATAAAAGTAACTAGTGCATTACATATGAATAAAA | 9.33 |
| CCTTGCCCCAGGAGTTCACACACATAATAGATTGTC [CACACA_site8138] | 9.67 |
| AGATATTTTTCTTAAGTACACACTAATTAGAAACTA [CACACA_site7897] | 9.18 |
| TTTTTATTTTAAAAGAATAATTATCTAATATCTATA [CACACA_negctrl_site371] | 8.82 |

| Sequence | gcPBM binding intensity (ln) |
| --- | --- |
| TATTTTTAACAGTGCACACATAACTTAATTATATGT [CACACA_site2194] | 9.3 |
| GTGCATAAATCATACACACACACATATATATATATA [CACACA_site2423] | 9.96 |
| ATAAAAATAAAAAAAACACACATACCTTATTTTTGT [CACACA_site5452] | 9.73 |
| GAAAGAAAATATTAAGTGCATATTTTAATGATACAA [GTGCAC_site9712] | 9.19 |
| ATTTTCCATATATTTTGTACATATGTATATTTTCCC [XGTACX_site7795] | 9.61 |
| TATAAAAAATTATGTTGTACGTAATATAAAATTTGT [XGTACX_site7122] | 9.24 |
| AATCAAAATAAATTAACACACAATTTTAATATTGTT [CACACA_site10] | 9.17 |
| AAATATAAATGGTAATACACATACACACACACATAC [XGTACX_negctrl_site459] | 10.2 |
| TATATCTCTTTATTCACACATACGTTTTAAAATAAT [CACACA_site5542] | 9.27 |
| TATAAATAAAGACACACACACACACCGTATAATTAC [CACACA_site7829] | 10.2 |
| TAATAAAACATATATACACACATTAGATATACATAT [CACACA_site6897] | 9.81 |
| TTCCCAACATGATATTGTACATTTAATTATAATTAA [XGTACX_site7029] | 9.33 |
| ATATTATTAATTTGTTGTACAGTTCTTTATTTATAG [XGTACX_site7932] | 9.52 |
| TATATGTTTGAATATACACACAACATATATATATAT [CACACA_site4066] | 9.38 |
| TATATTAAAAAAAAATGTACACATATATATATATAT [XGTACX_site4524] | 9.07 |
| CCAGGAAAAATTTATTGTACATATATTTTTATGCTC [XGTACX_site7154] | 8.96 |
| TATTTTTGGTTATGTGTGCACTATGAACAACAAAAT | 9.31 |
| ATTTTTTTATAAAATTTTTATATATTATATAAATAT [GTGCAC_negctrl_site163] | 9.01 |
| TAAAAATAGTATACAACACACGAGGGAAAATAAAGT [CACACA_site3837] | 10.2 |
| AAATGTATAATATTTTCACACACAAGAAAAAAGAAA [CACACA_site9195] | 9.7 |
| GCCAATAAAGATGTGGTGCATTATATATATATATAT | 9.26 |
| TATCGAGCACGGCGTGTGGAGTTACAAAGAGGAGAA [CACACA_negctrl_site40] | 9.32 |
| AGAAATGAAATATACACACATACATATATACATATA [CACACA_site4033] | 9.73 |

| Sequence | gcPBM binding intensity (ln) |
| --- | --- |
| ACCCTCATATTATAGACACACACAAAAAAAATAAAA [CACACA_site7941] | 9.73 |
| TAAATACACCCTAGACGTACATAAAAATTTAGTATG [XGTACX_site2512] | 9.28 |
| ATTAATAATGAGTTATGTACATACATATTTTAAGAT [XGTACX_site7543] | 9.14 |
| CTTCTTATTTTCTAATGTACGTACAAATCATTTATA [XGTACX_site2176] | 9.31 |
| ATATTTATATATATGTGTACATATAGAAACATAAAA [XGTACX_site4355] | 9.2 |
| TGTCCTTATGGGCACACACACATATAAGAAATTTAA [CACACA_site3187] | 9.56 |
| AAAAACAAACTGTGCATGCACCAAAAAAAAAAAAAA | 9.35 |
| TTTTTTTTTTTAATTTGTACGAATCTTTTTATTTTA [XGTACX_site4516] | 9.1 |
| CTTTCATATGTTTTAACACACACGCATATATTATAT [CACACA_site8615] | 9.74 |
| TTTTTTTTTTTGATTTGTACACAAAAAAAATATATG [XGTACX_site4547] | 8.95 |
| TTTTTTTTTTTTTTTTGTACATATTTTTAAACTATA [XGTACX_site2897] | 8.72 |
| TTTTTTTTTTGATGTTGTACATATATATTATATATA [XGTACX_site6377] | 9.36 |
| AGATATATGGACGACTCACACATTTAAATTCATTCA [CACACA_site6047] | 9.28 |
| ATAAACAATTAACAAACATGCAAATTTTAAATGTGT [TGCATGCA_site919] | 9.51 |
| ATTTATTTGTTTGTTTTTTTTACGATTTTTATTTTT [CACACA_negctrl_site1138] | 9.76 |
| CGTATTTATATAATTACACACCATATTTTAATTATT [CACACA_site5960] | 9.3 |
| TAATTTTTTTTTCTTGTACACACTATTTTATAATTT [CACACA_site4078] | 9.59 |
| ATCTATGATATATACACACACATGTATAAATAAATA [CACACA_site7012] | 9.57 |
| AATAGTATTCACAAAGTTTTATATAATAAATATAAA [GTGCAC_negctrl_site154] | 8.92 |
| TTTGAAATAAGCAAATGTACATTATTATTAAATATA [XGTACX_site6158] | 8.97 |
